In the antibiotic and cytotoxicity screens of Wong et al. (2023) one finds cytotoxicity call and growth inhibition call data, which are given here for 25 compounds.

This is one part of the list.

In one test the test system is HSkMC. Briefly: cytotoxicity call (relative viability < 0.9). The following applies: 10 µM.
A further test relates to HepG2. The experiment in a line: cytotoxicity call (relative viability < 0.9). The note with it: 10 µM.
The subject of the next test is S. aureus RN4220. Briefly: growth inhibition call (relative growth <= 0.2). The note with it: 50 µM.

As to `C[C@H](CO)N1C[C@H](C)[C@@H](CN(C)S(=O)(=O)c2ccc(F)cc2)Oc2ccc(NS(=O)(=O)c3cn(C)cn3)cc2C1=O`, the cytotoxicity call in the test on HSkMC and in the test on HepG2 was “inactive” in each case. In addition, in the test on S. aureus RN4220, the growth inhibition call is “inactive”.
Regarding `CN1C(=O)c2cc(NC(=O)C3CCOCC3)ccc2OC[C@H]2O[C@@H](CC(=O)NCc3ccccc3F)CC[C@@H]21`, the cytotoxicity call with HSkMC and in the test on HepG2 was “inactive” throughout. For the same compound, the growth inhibition call in the test on S. aureus RN4220 is “inactive”.
With `CCN(CC)CCOC(=O)C(c1ccccc1)c1ccccc1.Cl`, the cytotoxicity call in the test with HSkMC and in the test with HepG2 was “inactive” each time. For the same compound, the growth inhibition call in the test on S. aureus RN4220 is “inactive”.
Regarding `COc1ccc(S(=O)(=O)N(C)C[C@H]2Oc3ccc(NC(=O)NC(C)C)cc3C(=O)N([C@H](C)CO)C[C@H]2C)cc1`, the cytotoxicity call in the test on HSkMC and in the test with HepG2 was “inactive” each time. In the test with S. aureus RN4220, the growth inhibition call was “inactive”.
Take `COc1ccccc1CNC(=O)C[C@H]1C[C@@H]2c3cc(NC(=O)NC4CCCC4)ccc3O[C@@H]2[C@@H](CO)O1`: the cytotoxicity call in the test with HSkMC and with HepG2 was “inactive” throughout. Further, in the test with S. aureus RN4220, the growth inhibition call was “inactive”.
Take `C[C@@H]1CCCCO[C@@H](CN(C)C(=O)C2CCCCC2)[C@@H](C)CN([C@@H](C)CO)C(=O)c2cc(NS(=O)(=O)c3cccs3)ccc2O1`: the cytotoxicity call in the test on HSkMC and in the test with HepG2 was “inactive” in each case. In addition, the growth inhibition call in the test with S. aureus RN4220 was “inactive”.
Turning to `COc1ccc(C(=O)CCC(=O)O)c2ccccc12`, the cytotoxicity call with HSkMC was “inactive”. Further, in the test on HepG2, the cytotoxicity call is “active”. Also, the growth inhibition call with S. aureus RN4220 is “inactive”.
Consider `COc1ccc(CN2C[C@@H](C)[C@H](OC)CN(C)C(=O)c3ccc(NC(=O)c4nc5ccccc5s4)cc3OC[C@@H]2C)cc1`, for which the cytotoxicity call in the test on HSkMC and in the test on HepG2 was “inactive” each time. Further, the growth inhibition call in the test on S. aureus RN4220 was “inactive”.
Regarding `O=C(C[C@@H]1C=C[C@@H](NS(=O)(=O)c2ccc(F)cc2)[C@@H](CO)O1)N1CCC(Cc2ccccc2)CC1`, the cytotoxicity call in the test with HSkMC and with HepG2 was “inactive” each time. The growth inhibition call in the test with S. aureus RN4220 was “inactive”.
For `Cc1ccc[nH]c1=O`, the cytotoxicity call in the test on HSkMC and in the test on HepG2 was “inactive” throughout. The growth inhibition call in the test with S. aureus RN4220 is “inactive”.
Consider `Cc1ccc(S(=O)(=O)Nc2ccc3c(c2)C(=O)N([C@@H](C)CO)C[C@@H](C)[C@@H](CN(C)S(C)(=O)=O)OCCCC[C@@H](C)O3)cc1`, for which the cytotoxicity call in the test with HSkMC and in the test on HepG2 was “inactive” each time. Further, the growth inhibition call in the test on S. aureus RN4220 was “inactive”.
In the case of `C[C@@H]1CN([C@H](C)CO)C(=O)c2cc(NC(=O)CCCCCC(=O)Nc3ccccc3N)ccc2O[C@@H]1CN(C)Cc1ccc(Oc2ccccc2)cc1`, in the test on HSkMC, the cytotoxicity call is “inactive”. Besides, the cytotoxicity call with HepG2 is “active”. Further, the growth inhibition call with S. aureus RN4220 is “inactive”.
In the case of `C[C@@H]1CN([C@@H](C)CO[Si](C)(C)C(C)(C)C)C(=O)c2cc(NC(=O)Nc3ccccc3)ccc2O[C@@H](C)CCCCO[C@H]1CN(C)S(=O)(=O)c1ccc(F)cc1`, the cytotoxicity call in the test on HSkMC was “inactive”. Also, the cytotoxicity call in the test on HepG2 was “active”. The growth inhibition call with S. aureus RN4220 is “inactive”.
As to `C[C@H]1CN([C@@H](C)CO)C(=O)Cc2cc(NC(=O)CCN3CCOCC3)ccc2O[C@@H]1CN(C)Cc1ccc(C(=O)Nc2ccccc2N)cc1`, the cytotoxicity call in the test with HSkMC and in the test with HepG2 was “inactive” throughout. For the same compound, the growth inhibition call with S. aureus RN4220 is “inactive”.
Take `COc1ccc(NC(=O)N(C)C[C@H]2Oc3ccc(NC(=O)Nc4ccc(C(F)(F)F)cc4)cc3C(=O)N([C@H](C)CO)C[C@H]2C)cc1`: the cytotoxicity call in the test with HSkMC and with HepG2 was “inactive” each time. Further, in the test with S. aureus RN4220, the growth inhibition call was “inactive”.
For `C[C@@H]1CN([C@@H](C)CO)C(=O)c2cccc(N(C)C)c2O[C@H]1CN(C)S(=O)(=O)c1ccc(Cl)cc1`, the cytotoxicity call with HSkMC and with HepG2 was “inactive” each time. The growth inhibition call in the test with S. aureus RN4220 is “inactive”.
As to `COCC(=O)N1C[C@H](C)[C@H](OC)CN(C)C(=O)c2cc(NC(=O)Nc3ccccc3)ccc2OC[C@@H]1C`, the cytotoxicity call with HSkMC and in the test with HepG2 was “inactive” throughout. Also, the growth inhibition call in the test with S. aureus RN4220 is “inactive”.
Consider `C[C@@H]1CN([C@H](C)CO)C(=O)c2cc(NC(=O)c3ccncc3)ccc2O[C@H]1CN(C)S(=O)(=O)c1ccccc1`, for which the cytotoxicity call in the test on HSkMC and with HepG2 was “inactive” in each case. In addition, the growth inhibition call in the test on S. aureus RN4220 is “inactive”.
As for `C[C@@H]1CN([C@H](C)CO)C(=O)c2cc(NC(=O)C3CCCCC3)ccc2O[C@@H](C)CCCCO[C@H]1CN(C)C(=O)C1CCCCC1`, the cytotoxicity call in the test with HSkMC and in the test with HepG2 was “inactive” in each case. Moreover, the growth inhibition call in the test on S. aureus RN4220 is “inactive”.
As to `CCOC(=O)N(C)C[C@H]1OCc2cnnn2CCCC(=O)N([C@@H](C)CO)C[C@H]1C`, the cytotoxicity call with HSkMC and with HepG2 was “inactive” each time. The growth inhibition call in the test with S. aureus RN4220 was “inactive”.
As to `C[C@@H]1CN([C@H](C)CO)C(=O)c2cc(NS(C)(=O)=O)ccc2O[C@H]1CN(C)S(=O)(=O)c1ccc(Cl)cc1`, the cytotoxicity call in the test on HSkMC and in the test on HepG2 was “inactive” each time. Besides, the growth inhibition call in the test on S. aureus RN4220 was “inactive”.
With `C[C@@H]1CCCCO[C@@H](CN(C)C(=O)CCC(F)(F)F)[C@@H](C)CN([C@H](C)CO)C(=O)c2cc(NC(=O)C3CCCCC3)ccc2O1`, the cytotoxicity call in the test with HSkMC and with HepG2 was “inactive” in each case. The growth inhibition call in the test on S. aureus RN4220 is “inactive”.
On to `C[C@@H]1CCCCO[C@H](CN(C)Cc2ccc(C(F)(F)F)cc2)[C@@H](C)CN([C@@H](C)CO)C(=O)c2cc(NC(=O)c3ccccc3)ccc2O1`, for which the cytotoxicity call with HSkMC and in the test with HepG2 was “inactive” each time. In the test with S. aureus RN4220, the growth inhibition call was “inactive”.
As for `CC1CC2C3CC(F)C4=CC(=O)C=CC4(C)C3(F)C(O)CC2(C)C1(O)C(=O)CO` (stereo not given), the cytotoxicity call in the test with HSkMC and in the test on HepG2 was “inactive” throughout. Moreover, the growth inhibition call in the test on S. aureus RN4220 was “inactive”.
Consider `C[C@H](CO)N1C[C@H](C)[C@H](CN(C)S(=O)(=O)c2cccc(F)c2)Oc2ncc(-c3ccccc3)cc2C1=O`, for which the cytotoxicity call in the test on HSkMC (human skeletal muscle cells) and with HepG2 was “inactive” throughout. Also, the growth inhibition call in the test on S. aureus RN4220 is “inactive”.
